# Laboratory results taken from PubChem BioAssay AID2451 (National Center for Advancing Translational Sciences (NCATS), 2010).
# “And” between values parts separate entries of the source, which are not always exact repeats. Equal entries are not always repeated. Among all 290,000 compounds or so, about 2,100 (0.72%) were called active. The inconclusive results got no clear call from the source; some entries with a clear call stand among them for comparison. Calls follow the shape of the dose curve; as a rule, active = well fitted inhibition curve with a large enough effect; inconclusive = small, poorly fitted or top-dose-only effect, or effect the other way; inactive = flat fitted curve, though single readings scatter. Where the call is inconclusive, the potency comes from a doubtful curve fit.
# Biological target: Fructose-bisphosphate aldolase (Giardia intestinalis (strain ATCC 50803 / WB clone C6)) (UniProt A8B2U2)
# Assay: qHTS Assay for Inhibitors of Fructose-1,6-bisphosphate Aldolase from Giardia Lamblia; also: nearly all actives have a fitted effect of over 55% in size
# Conditions: purified Giardia FBPA; activity, negative = inhibition: at 59.6 µM (top of the series) unless noted
# Procedure, shortened: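 Giardia FBPA (40 nM reagent) was preincubated 10 min at RT with compound (up to 57.5 uM final), then substrate plus GAPDH/TPI/NAD/arsenate coupling system with diaphorase/resazurin was added; resorufin fluorescence (525/598 nm) was read after 20 min.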
# % is scaled to controls: 0 for no effect and ±100 for the full control effect; potency is read from the fitted curve at half-maximal effect; tags tell the direction and shape of the fitted curve.
# UniProt A8B2U2, sequence (A8B2U2 whole entry, looked up): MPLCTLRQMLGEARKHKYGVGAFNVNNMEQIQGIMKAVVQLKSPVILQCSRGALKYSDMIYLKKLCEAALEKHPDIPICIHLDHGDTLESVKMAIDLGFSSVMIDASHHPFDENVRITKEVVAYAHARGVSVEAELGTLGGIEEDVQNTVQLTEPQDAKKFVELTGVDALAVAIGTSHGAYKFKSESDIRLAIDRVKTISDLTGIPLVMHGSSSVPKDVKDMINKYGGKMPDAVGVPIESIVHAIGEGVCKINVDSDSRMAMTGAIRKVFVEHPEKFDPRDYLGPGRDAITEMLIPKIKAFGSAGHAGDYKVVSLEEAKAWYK
Structure (SMILES),"activity, negative = inhibition",Potency
CC(=O)Nc1ccc(S(=O)(=O)N(C)CC(=O)N/N=C/c2cccc(O)c2)cc1,inactive: 9.48%,–
CCSC1=C(C#N)C(c2ccc(Cl)cc2)C2=C(CCCC2=O)N1 (centres undefined),inactive: -12%,–
CC(C)C[C@H]1C(=O)N2CCC[C@@H]2[C@]2(O)O[C@](NC(=O)[C@H]3C=C4c5cccc6[nH]c(Br)c(c56)C[C@H]4N(C)C3)(C(C)C)C(=O)N12,–,"inconclusive: 17.7 µM [inhibitor, partial curve]"
CN(C)C(CNC(=O)C1CCN(C(=O)/C=C/c2ccccc2)CC1)c1ccccc1 (centres undefined),inactive: -0.845%,–
CN(C)CCCNS(=O)(=O)c1ccc(N2CCN(Cc3ccc4c(c3)OCO4)CC2)c([N+](=O)[O-])c1,–,active: 14.1 µM
CCc1nnc(N/N=C/c2cc(C)c(C)cc2C)n1N,–,active: 12.6 µM
Cc1ccc(C)n1-c1ccc(N(C)C)cc1,–,"inconclusive: 1.99 µM [inhibitor, partial curve]"
Cc1ccc(S(=O)(=O)N2CCCCC2)cc1NC(=O)CNCc1ccco1,–,active: 7.92 µM
COC(=O)c1ccc(NC(=S)NC(=O)c2cccnc2)cc1,–,active: 7.08 µM
CCN(Cc1ccccc1)S(=O)(=O)c1cc(C(=O)NCC2CCCCC2)ccc1OC,inactive: -3.89%,–
N#C/C=C\Oc1ccc(Cl)cc1N,–,"inconclusive: 14.1 µM [inhibitor, single point]"
CC(NC(=O)/C(C#N)=C/c1ccc([N+](=O)[O-])o1)c1ccccc1 (centres undefined),–,"inconclusive: 17.8 µM [inhibitor, partial curve]"
COc1ccc2ccccc2c1CNCc1ccc(C)cc1,–,"inconclusive: 25.1 µM [inhibitor, partial curve]"
COc1ccc(Cl)cc1C(=O)NCCc1ccc(S(=O)(=O)NC(=O)NC2CCCCC2)cc1,–,"inconclusive: 22.3 µM [activator, partial curve] and inconclusive: 15.8 µM [activator, partial curve]"
c1ccc(-c2nnc(-c3ccccn3)nc2NC2CCCCC2)cc1,–,"inconclusive: 14.1 µM [inhibitor, partial curve]"
O=C(COC(=O)c1ccc([N+](=O)[O-])s1)NCc1ccccc1,inactive: -2.25%,–
COc1cc(N=c2c([N+](=O)[O-])nn(-c3ccc4c(c3)OCCO4)n2O)cc(OC)c1,–,"inconclusive: 17.7 µM [inhibitor, partial curve]"
S=c1[nH]nc(COc2ccc(Cl)cc2)n1-c1ccc(Cl)cc1,–,"inconclusive: 15.8 µM [activator, partial curve]"
Cc1cc(-c2csc(N)n2)c(C)n1Cc1ccccc1,–,"inconclusive: 15.8 µM [inhibitor, partial curve]"
CCOC(=O)NC1(Nc2ccc(Cl)cn2)Oc2ccccc2O1,–,"inconclusive: 15.8 µM [inhibitor, single point]"
Cn1cc(P(=S)(N2CCOCC2)N2CCOCC2)cc1P(=O)(N1CCOCC1)N1CCOCC1,–,"inconclusive: 17.7 µM [inhibitor, partial curve]"
CCN(CC(=O)NC(=O)NCc1ccco1)Cc1nc2ccccc2c(=O)[nH]1,–,"inconclusive: 3.54 µM [inhibitor, full curve]"
COc1cccc(N2CCN(c3ncnc4c3[nH]c3ccc(F)cc34)CC2C)c1 (centres undefined),inactive: -3.19%,–

Structure (SMILES),"activity, negative = inhibition",Potency
COCCCNC(=S)NNC(=O)c1cccnc1,–,"inconclusive: 3.97 µM [inhibitor, full curve]"
Cc1nnc(NC(=O)CSc2nnc(CNC(=O)c3ccc(S(=O)(=O)N(C)C)cc3)o2)s1,–,"inconclusive: 22.4 µM [inhibitor, partial curve]"
COc1ccccc1-n1c(CNc2c(C)cccc2C)nnc1SCC(=O)N1CCOCC1,–,"inconclusive: 35.4 µM [activator, single point]"
N#CC(C(=O)c1ccco1)c1ccccn1 (centres undefined),inactive: -6.77%,–
CC1CCC(NC(=S)NCCN(C)C)CC1 (centres undefined),–,"inconclusive: 19.9 µM [inhibitor, partial curve]"
O=C(NC(=S)NC(CO)Cc1ccccc1)c1ccc(F)cc1 (centres undefined),–,"inconclusive: 22.4 µM [inhibitor, partial curve]"
CCO[C@H]1OC(C(N)=O)=C[C@@H](C)[C@@H]1CCCO,inactive: 1.27%,–
Cc1cc(C)c2c(N)c(C(=O)NC3CC3)sc2n1,inactive: -7.18%,–
Cc1cc(OCCN2CC(C)OC(C)C2)ccc1[N+](=O)[O-] (centres undefined),–,"inconclusive: 14.1 µM [inhibitor, partial curve]"
Cc1sc(/C=C2\C(=O)ON=C2c2ccccc2)cc1Br,inactive: 10.6%,–
CC(OC(=O)C1=Cc2ccccc2OC1)C(=O)NC(C)(C)C (centres undefined),inactive: -0.623%,–
CCCCCCCCCCCCCCCC(=O)N[C@@H](COP(=O)(O)O)C(=O)O,–,"inconclusive: 8.89 µM [activator, partial curve]"
O=S(=O)(c1ccc(Cl)c(C(F)(F)F)c1)N1CCN(CC(O)COc2ccccc2F)CC1 (centres undefined),–,"inconclusive: 25.1 µM [inhibitor, partial curve]"
Nc1cccn2c(-c3ccc(Cl)cc3)cnc12,–,"inconclusive: 5.61 µM [inhibitor, partial curve]"
Cc1nnc(NC(=O)CSc2nnc(CC(=O)Nc3ccccc3F)n2C)s1,–,"inconclusive: 20 µM [inhibitor, partial curve]"
O=C(CSc1nnc(NC(=O)C2CC(=O)N(c3ccc(F)cc3)C2)s1)NCC1CCCO1 (centres undefined),–,"inconclusive: 25.1 µM [inhibitor, partial curve]"
Cc1cccc(OCC(=O)NCC(=O)N/N=C/c2ccccc2)c1,–,"inconclusive: 28.2 µM [inhibitor, single point]"
O=C(Nc1ccc(Cl)cc1)c1ccc(OC2CSC2)cc1,inactive: 4.03%,–
COc1ccc(-c2nnc(Nc3nc4c(OC)cccc4s3)o2)cc1,–,"inconclusive: 14.1 µM [inhibitor, partial curve]"
OC(COc1ccc2ccccc2c1)CN1CCCC1 (centres undefined),–,"inconclusive: 22.4 µM [inhibitor, partial curve]"
Cc1cccc(-c2nc(=S)c3c(o2)CCCC3)c1,–,"inconclusive: 19.9 µM [inhibitor, single point]"
Cc1ccc(S(=O)(=O)NC(C)(C)CN2CCC(Cc3ccccc3)CC2)cc1,–,"inconclusive: 17.7 µM [inhibitor, partial curve]"
COC(=O)c1cc(C)cc(=O)o1,inactive: 4.35%,–

Structure (SMILES),"activity, negative = inhibition",Potency
CCn1c(NCc2cc(OC)c(OC)c(OC)c2)nc2ccccc21,–,"inconclusive: 14.1 µM [inhibitor, partial curve]"
OC(COCc1ccc(Cl)cc1)CN1CC=C(c2ccccc2)CC1 (centres undefined),–,"inconclusive: 12.6 µM [inhibitor, partial curve]"
CCCc1nnc(SCC(=O)Nc2nnc(CC)s2)n1CC1CCCO1 (centres undefined),–,"inconclusive: 20 µM [inhibitor, single point]"
CC(=O)OC[C@@H]1O[C@@H](O/N=C2/C[C@@H](O)[C@@H](O)[C@@H]3[C@@H]4C(=O)N(C(C)(C)C)C(=O)[C@H]4CC[C@@H]23)[C@H](OC(C)=O)[C@H](OC(C)=O)[C@@H]1OC(C)=O,inactive: -1.69% [at 12.9 µM],–
CC(C)Oc1cccc(C(=O)NC(=S)Nc2cccnc2)c1,–,"inconclusive: 17.7 µM [inhibitor, partial curve]"
Nc1ccccc1C(=O)N1CCc2ccccc21,inactive: 5.61%,–
O=C(Nc1nnc(C2CC2)s1)c1ccccn1,–,"inconclusive: 7.06 µM [inhibitor, single point]"
Oc1cccc(/C=N/c2c(-c3ccco3)nc3ccccn23)c1,–,"inconclusive: 7.92 µM [inhibitor, partial curve]"
Cc1ccc(OCc2n[nH]c(=S)n2-c2ccccc2)cc1C,inactive: 12.1%,–
COc1ccc(CCNCC(O)COc2c(C)cccc2C)cc1OC (centres undefined),–,"inconclusive: 7.94 µM [inhibitor, partial curve]"
O=c1cc(CN2CC(O)Cc3ccc4ccccc4c32)nc2sccn12 (centres undefined),–,"inconclusive: 17.7 µM [inhibitor, single point]"
CN(C)CCCNCC(=O)Nc1ccccc1N1CCOCC1,–,"inconclusive: 17.7 µM [inhibitor, partial curve]"
CC(C)OC(=O)Nc1ccc2c(c1)N(C(=O)N1CCN(C)CC1)c1ccccc1CC2,–,active: 15.8 µM
Cc1ccc2c(c1)C(=C(C#N)C#N)C(=O)N2CCN1CCOCC1,–,active: 3.15 µM
O/C=c1\ccc2cccc3nc(C(F)(F)F)nc1c23,–,"inconclusive: 11.2 µM [inhibitor, partial curve]"
O=C1c2ccccc2NC(c2ccc(-c3ccc(Br)cc3)o2)N1O (centres undefined),–,"inconclusive: 8.89 µM [inhibitor, full curve]"
CCN1CCN(CCCOc2ccccc2-c2ccccc2)CC1,–,"inconclusive: 17.7 µM [inhibitor, partial curve]"
O=C(O)C1=CC(=C(c2ccc(O)c(C(=O)O)c2)c2ccc(O)c(C(=O)O)c2)C=CC1=O,–,"inconclusive: 35.4 µM [inhibitor, single point]"
CC(C)(C)NC(=O)C(c1ccncc1)N(C(=O)CNC(=O)c1ccco1)c1ccc2c(c1)OCO2 (centres undefined),–,"inconclusive: 19.9 µM [inhibitor, single point]"
COC(=O)C1=C(C(=O)OC)C(c2ccc(OC)c(OC)c2)c2sc(=O)[nH]c2S1 (centres undefined),–,"inconclusive: 15.8 µM [inhibitor, single point]"
Cc1oc(-c2cc3c(cc2Cl)OCO3)nc1CN1CCCC1c1ccc(F)cc1 (centres undefined),inactive: -3.98%,–
COc1ccc(-c2nnc3sc(-c4ccco4)nn23)cc1OC,inactive: -9.98%,–
CCN1C=C(Cc2ccc(F)cc2)C2=C(C1)C(c1ccc(F)cc1)C(C#N)=C(N)O2 (centres undefined),–,"inconclusive: 15.8 µM [inhibitor, partial curve]"
